Measured values published in the supplement of paper PMC8728848.
The other results are listed elsewhere or left out.

Legend:
Assay in all cases: glycan array binding signal (z-score within array); higher = stronger binding
Settings in all cases: glycan notation: IUPAC condensed, linker removed
[1] = molecular target: Neu5Ac(a2-3)Gal(b1-4)GlcNAc(b1-6)GalNAc
Outline: (§1)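 Columns mapping to the same glycan were averaged after glycan names were converted to IUPAC-condensed notation. The data come from 3228 arrays in the Consortium for Functional Glycomics database, limited to those with an available protein sequence. Binding is reported as a within-array Z-score averaged across arrays of one protein sequence and across linkers.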

[2] = molecular target: Neu5Ac(a2-3)Gal(b1-4)GlcNAc(b1-6)[Gal(b1-3)]GalNAc
Outline: as §1

[3] = molecular target: Neu5Ac(a2-3)Gal(b1-4)GlcNAc(b1-6)[Neu5Ac(a2-3)Gal(b1-3)]GalNAc
Outline: as §1

[4] = molecular target: Neu5Ac(a2-3)Gal(b1-4)GlcNAc6S
Outline: as §1

[5] = molecular target: Neu5Ac(a2-3)Gal(b1-4)[Fuc(a1-3)]GlcNAc
Outline: as §1

[6] = molecular target: Neu5Ac(a2-3)Gal(b1-4)[Fuc(a1-3)]GlcNAc(b1-2)Man
Outline: as §1

[7] = molecular target: Neu5Ac(a2-3)Gal(b1-4)[Fuc(a1-3)]GlcNAc(b1-3)Gal
Outline: as §1

[8] = molecular target: Neu5Ac(a2-3)Gal(b1-4)[Fuc(a1-3)]GlcNAc(b1-3)Gal(b1-4)GlcNAc
Outline: as §1

[9] = molecular target: Neu5Ac(a2-3)Gal(b1-4)[Fuc(a1-3)]GlcNAc(b1-3)Gal(b1-4)[Fuc(a1-3)]GlcNAc(b1-3)Gal(b1-4)[Fuc(a1-3)]GlcNAc
Outline: as §1

[10] = molecular target: Neu5Ac(a2-3)Gal(b1-4)[Fuc(a1-3)]GlcNAc(b1-3)GalNAc
Outline: as §1

[11] = molecular target: Neu5Ac(a2-3)Gal(b1-4)[Fuc(a1-3)]GlcNAc(b1-6)[Gal(b1-3)]GalNAc
Outline: as §1

[12] = molecular target: Neu5Ac(a2-3)Gal(b1-4)[Fuc(a1-3)]GlcNAc(b1-6)[Neu5Ac(a2-3)Gal(b1-3)]GalNAc
Outline: as §1

[13] = molecular target: Neu5Ac(a2-3)Gal(b1-4)[Fuc(a1-3)]GlcNAc6S
Outline: as §1

[14] = molecular target: Neu5Ac(a2-3)Gal6S(b1-4)GlcNAc
Outline: as §1

[15] = molecular target: Neu5Ac(a2-3)Gal6S(b1-4)[Fuc(a1-3)]GlcNAc
Outline: as §1

Neu5Ac(a2-3)GalNAc = molecular target: Neu5Ac(a2-3)GalNAc
Outline: as §1

[16] = molecular target: Neu5Ac(a2-3)GalNAc(b1-4)GlcNAc
Outline: as §1

[17] = molecular target: Neu5Ac(a2-3)[GalNAc(b1-4)]Gal(b1-4)Glc
Outline: as §1

[18] = molecular target: Neu5Ac(a2-3)[GalNAc(b1-4)]Gal(b1-4)GlcNAc
Outline: as §1

[19] = molecular target: Neu5Ac(a2-3)[GalNAc(b1-4)]Gal(b1-4)GlcNAc(b1-3)GalNAc
Outline: as §1

[20] = molecular target: Neu5Ac(a2-3)[Neu5Ac(a2-6)]GalNAc
Outline: as §1

Neu5Ac(a2-6)Gal = molecular target: Neu5Ac(a2-6)Gal
Outline: as §1

[21] = molecular target: Neu5Ac(a2-6)Gal(b1-3)GlcNAc(b1-3)[Gal(b1-4)GlcNAc(b1-6)]Gal(b1-4)Glc
Outline: as §1

Neu5Ac(a2-6)Gal(b1-4)Glc = molecular target: Neu5Ac(a2-6)Gal(b1-4)Glc
Outline: as §1

[22] = molecular target: Neu5Ac(a2-6)Gal(b1-4)GlcNAc
Outline: as §1

[23] = molecular target: Neu5Ac(a2-6)Gal(b1-4)GlcNAc(b1-2)Man
Outline: as §1

[24] = molecular target: Neu5Ac(a2-6)Gal(b1-4)GlcNAc(b1-2)Man(a1-3)Man(b1-4)GlcNAc(b1-4)GlcNAc
Outline: as §1

[25] = molecular target: Neu5Ac(a2-6)Gal(b1-4)GlcNAc(b1-2)Man(a1-3)[Gal(b1-4)GlcNAc(b1-2)Man(a1-6)]Man(b1-4)GlcNAc(b1-4)GlcNAc
Outline: as §1

[26] = molecular target: Neu5Ac(a2-6)Gal(b1-4)GlcNAc(b1-2)Man(a1-3)[GlcNAc(b1-2)Man(a1-6)]Man(b1-4)GlcNAc(b1-4)GlcNAc
Outline: as §1

[27] = molecular target: Neu5Ac(a2-6)Gal(b1-4)GlcNAc(b1-2)Man(a1-3)[GlcNAc(b1-4)][Neu5Ac(a2-6)Gal(b1-4)GlcNAc(b1-2)Man(a1-6)]Man(b1-4)GlcNAc(b1-4)GlcNAc
Outline: as §1

[28] = molecular target: Neu5Ac(a2-6)Gal(b1-4)GlcNAc(b1-2)Man(a1-3)[Man(a1-6)]Man(b1-4)GlcNAc(b1-4)GlcNAc
Outline: as §1

[29] = molecular target: Neu5Ac(a2-6)Gal(b1-4)GlcNAc(b1-2)Man(a1-3)[Neu5Ac(a2-3)Gal(b1-4)GlcNAc(b1-2)Man(a1-6)]Man(b1-4)GlcNAc(b1-4)GlcNAc
Outline: as §1

[30] = molecular target: Neu5Ac(a2-6)Gal(b1-4)GlcNAc(b1-2)Man(a1-3)[Neu5Ac(a2-6)Gal(b1-4)GlcNAc(b1-2)Man(a1-6)]Man(b1-4)GlcNAc(b1-4)GlcNAc
Outline: as §1

[31] = molecular target: Neu5Ac(a2-6)Gal(b1-4)GlcNAc(b1-2)Man(a1-3)[Neu5Ac(a2-6)Gal(b1-4)GlcNAc(b1-2)Man(a1-6)]Man(b1-4)GlcNAc(b1-4)[Fuc(a1-6)]GlcNAc
Outline: as §1

[32] = molecular target: Neu5Ac(a2-6)Gal(b1-4)GlcNAc(b1-2)Man(a1-6)Man(b1-4)GlcNAc(b1-4)GlcNAc
Outline: as §1

[33] = molecular target: Neu5Ac(a2-6)Gal(b1-4)GlcNAc(b1-2)Man(a1-6)[Gal(b1-4)GlcNAc(b1-2)Man(a1-3)]Man(b1-4)GlcNAc(b1-4)GlcNAc
Outline: as §1

[34] = molecular target: Neu5Ac(a2-6)Gal(b1-4)GlcNAc(b1-2)Man(a1-6)[GlcNAc(b1-2)Man(a1-3)]Man(b1-4)GlcNAc(b1-4)GlcNAc
Outline: as §1

[35] = molecular target: Neu5Ac(a2-6)Gal(b1-4)GlcNAc(b1-2)Man(a1-6)[Man(a1-3)]Man(b1-4)GlcNAc(b1-4)GlcNAc
Outline: as §1

[36] = molecular target: Neu5Ac(a2-6)Gal(b1-4)GlcNAc(b1-2)[Neu5Ac(a2-6)Gal(b1-4)GlcNAc(b1-4)]Man(a1-3)[GlcNAc(b1-4)][Neu5Ac(a2-6)Gal(b1-4)GlcNAc(b1-2)[Neu5Ac(a2-6)Gal(b1-4)GlcNAc(b1-6)]Man(a1-6)]Man(b1-4)GlcNAc(b1-4)GlcNAc
Outline: as §1

[37] = molecular target: Neu5Ac(a2-6)Gal(b1-4)GlcNAc(b1-2)[Neu5Ac(a2-6)Gal(b1-4)GlcNAc(b1-4)]Man(a1-3)[GlcNAc(b1-4)][Neu5Ac(a2-6)Gal(b1-4)GlcNAc(b1-4)Man(a1-6)]Man(b1-4)GlcNAc(b1-4)GlcNAc
Outline: as §1

[38] = molecular target: Neu5Ac(a2-6)Gal(b1-4)GlcNAc(b1-2)[Neu5Ac(a2-6)Gal(b1-4)GlcNAc(b1-6)]Man(a1-6)[Neu5Ac(a2-6)Gal(b1-4)GlcNAc(b1-2)Man(a1-3)][GlcNAc(b1-4)]Man(b1-4)GlcNAc(b1-4)GlcNAc
Outline: as §1

[39] = molecular target: Neu5Ac(a2-6)Gal(b1-4)GlcNAc(b1-3)Gal(b1-3)GlcNAc
Outline: as §1

[40] = molecular target: Neu5Ac(a2-6)Gal(b1-4)GlcNAc(b1-3)Gal(b1-4)GlcNAc
Outline: as §1

[41] = molecular target: Neu5Ac(a2-6)Gal(b1-4)GlcNAc(b1-3)Gal(b1-4)GlcNAc(b1-2)Man(a1-3)[Neu5Ac(a2-6)Gal(b1-4)GlcNAc(b1-3)Gal(b1-4)GlcNAc(b1-2)Man(a1-6)]GalNAc
Outline: as §1

[42] = molecular target: Neu5Ac(a2-6)Gal(b1-4)GlcNAc(b1-3)Gal(b1-4)GlcNAc(b1-3)Gal(b1-4)GlcNAc
Outline: as §1

[43] = molecular target: Neu5Ac(a2-6)Gal(b1-4)GlcNAc(b1-3)Gal(b1-4)GlcNAc(b1-3)Gal(b1-4)GlcNAc(b1-2)Man(a1-3)[Neu5Ac(a2-6)Gal(b1-4)GlcNAc(b1-3)Gal(b1-4)GlcNAc(b1-3)Gal(b1-4)GlcNAc(b1-2)Man(a1-6)]GalNAc
Outline: as §1

B1: PX15618A-bth-503-24-503 (Bacteroides thetaiotaomicron) (protein)
chain: NKSEDKLSGDDFWAQGNETNAEAFLLSIYNSFRNATMSQRPFLTYSGDMRCAPITAYSTGDKYVAYLANNDMGELRNTYPDDARGGLIMQWDVFYTAIQDANILLAEIDKVPGMDELKRSRFKAEAIFMRSLSYFFIVRAFGDVPYYTNAYNEAPLPRTNMVIVLQNCLADLQPLLDDDPGAEVLPWSYSSYSSKGIRASRGSVIALMMHINLWLVQFDAQNKEQYYRNVVSLGEELERNNGAYSLLDINRSSVIFAGGSDEGLFEIAQNINFNEIFMMNAKFSDNVSYSCLNKSMPLFCYSGDYLMTLFPMYEDDARKELWFDEKIYSTSVSSSAPKEIKKFWNIDTYGNGTITSNSGNQIVFRYAGALLLYAEALAALGTNDTKACELLNRVRNRAHASEINTSGSELMDAIFWERCRELIGEGHYYYDLVRTGKVYNRNYCMNPMTRTNFNVGAWTWPIHRNALKNNTQIGLNLFWE
In the case of B1, the “glycan array binding signal (z-score)” value [1] is reported as -0.222, the “glycan array binding signal (z-score)” value [2] is reported as -0.251 and the “glycan array binding signal (z-score)” value [3] is reported as -0.194. For the same binder, the “glycan array binding signal (z-score)” value [4] was 0.22, the “glycan array binding signal (z-score)” value [5] was -0.216 and the “glycan array binding signal (z-score)” value [6] was -0.33. For the same binder, the “glycan array binding signal (z-score)” value [7] was 0.244, the “glycan array binding signal (z-score)” value [8] was 0.344 and the “glycan array binding signal (z-score)” value [9] was -0.317. The “glycan array binding signal (z-score)” value [10] was -0.342, the “glycan array binding signal (z-score)” value [11] was -0.258 and the “glycan array binding signal (z-score)” value [12] was 0.684. The “glycan array binding signal (z-score)” value [13] was -0.429, the “glycan array binding signal (z-score)” value [14] was 0.119 and the “glycan array binding signal (z-score)” value [15] was -0.433. For the same binder, the “glycan array binding signal (z-score)” value (Neu5Ac(a2-3)GalNAc) was -0.79, the “glycan array binding signal (z-score)” value [16] was -0.191 and the “glycan array binding signal (z-score)” value [17] was -0.82. For the same binder, the “glycan array binding signal (z-score)” value [18] was -0.3, the “glycan array binding signal (z-score)” value [19] was 0.035 and the “glycan array binding signal (z-score)” value [20] was 0.168. The “glycan array binding signal (z-score)” value (Neu5Ac(a2-6)Gal) was 0.446, the “glycan array binding signal (z-score)” value [21] was 0.092 and the “glycan array binding signal (z-score)” value (Neu5Ac(a2-6)Gal(b1-4)Glc) was -0.213. The “glycan array binding signal (z-score)” value [22] was 0.767, the “glycan array binding signal (z-score)” value [23] was -0.432 and the “glycan array binding signal (z-score)” value [24] was 0.401. For the same binder, the “glycan array binding signal (z-score)” value [25] was -0.781, the “glycan array binding signal (z-score)” value [26] was -0.438 and the “glycan array binding signal (z-score)” value [27] was -0.755. For the same binder, the “glycan array binding signal (z-score)” value [28] was -0.239, the “glycan array binding signal (z-score)” value [29] was 0.015 and the “glycan array binding signal (z-score)” value [30] was -0.217. The “glycan array binding signal (z-score)” value [31] was 0.509, the “glycan array binding signal (z-score)” value [32] was 0.441 and the “glycan array binding signal (z-score)” value [33] was -0.623. The “glycan array binding signal (z-score)” value [34] was -0.445, the “glycan array binding signal (z-score)” value [35] was -0.52 and the “glycan array binding signal (z-score)” value [36] was 0.469. For the same binder, the “glycan array binding signal (z-score)” value [37] was -0.142, the “glycan array binding signal (z-score)” value [38] was 0.131 and the “glycan array binding signal (z-score)” value [39] was 0.473. The “glycan array binding signal (z-score)” value [40] was 0.689, the “glycan array binding signal (z-score)” value [41] was -0.462 and the “glycan array binding signal (z-score)” value [42] was -0.165. For the same binder, the “glycan array binding signal (z-score)” value [43] was -0.063.
